In ChEMBL document CHEMBL1156829:
Over roughly 5,400 compounds, “IFI” has its median near 2; the highest 2% begin near 22. The list shows a part of the results.

Assay: NOVARTIS: Inhibition Frequency Index (IFI) - the number of HTS assays where a compound showed > 50% inhibition/induction, expressed as a percentage of the number of assays in which the compound was tested.
Type: functional

Structure (SMILES)	IFI [%]
Cc1[nH]c(=O)[nH]c(=O)c1S(=O)(=O)Nc1ccc2oc(-c3ccncc3)nc2c1	2.38
c1ccc(CSc2scnc2[P+](c2ccccc2)(c2ccccc2)c2ccccc2)cc1	27.8
CC1=C(C(=O)OC2CCCCC2)C(c2ccc(Cl)c(Cl)c2)C2=C(CCCC2=O)N1 (stereo not given)	5.75
O=C(NCc1ccco1)c1ccc(OC2CCN(Cc3ccncc3)CC2)c(Cl)c1	1.39
O=C(Nc1ccc(-c2cn3cccnc3n2)cc1)c1ccccc1I	7.69
Cn1nc(-c2ccccc2)c2c(C(=O)C(F)(F)F)cc(C(=O)C(F)(F)F)c-2c1-c1ccccc1	1.54
CCC(=O)CC(O)C[C@@H](C)C[C@H](NC(=O)[C@@H]1C[C@H](C)CN1C(=O)/C=C/[C@@H](C)CC)C(=O)N[C@H](C(=O)NC(C)(C)C(=O)N[C@@H](CC(C)C)C(=O)N[C@@H](CC(C)C)C(=O)NC(C)(C)C(=O)NC(C)(C)C(=O)NCCC(=O)N[C@@H](C)CN(C)C)[C@H](O)C(C)C (stereo not given in full)	12.1
OC(CN1CCOCC1)Cn1cnc2c(SCc3ccccc3)ncnc21 (stereo not given)	0
O=C(CSc1ccccc1)NCCCCNc1ccnc2cc(Cl)ccc12	3.74
COC(=O)c1ccc(Nc2nc(NCc3ccco3)c3ccccc3n2)cc1	0
OC(CNC1CCCCC1)Cn1c2ccc(Cl)cc2c2cc(Cl)ccc21 (stereo not given)	6.98
Cc1cc(/C=C2/SC(=Nc3ccccc3)NC2=O)c(C)n1-c1cccc([N+](=O)[O-])c1	0
COc1cccc(NC(=O)c2ccc3oc(=O)c(S(=O)(=O)c4ccccc4)cc3c2)c1	9.09
O=C1C(NC2CCCC2)=C(N2CCOCC2)C(=O)c2ccccc21	0
OC(CN1CCN(Cc2ccccc2)CC1)Cn1c2ccc(I)cc2c2cc(I)ccc21 (stereo not given)	7.55
CC(=O)c1cccc(NC(=O)NC2CC3CCCC(C2)N3CCc2ccccc2)c1 (stereo not given)	1.27
CC1CCN(C(=O)CSc2nc(NCc3ccccc3)c3ccccc3n2)CC1	0
COc1ccc(-c2ncc([C@@H]3C[C@H]4CN(c5ccccc5)C(=O)[C@]45CCCN35)cn2)cc1	7.69
O=C1CC(N2CCCCCC2)C(=O)N1c1ccc(N2C(=O)CC(N3CCCCCC3)C2=O)cc1 (stereo not given)	0
O=C1C2C(C(=O)N1c1cccc3ccccc13)C1C=CC2C12CC2 (stereo not given)	0
CCOC(=O)C1=C(C)NC2=C(C(=O)CC(c3ccc(OC)c(OC)c3)C2)C1c1ccccc1F (stereo not given)	2.35
O=[N+]([O-])c1ccc(C=NNc2nc(Nc3ccccc3)nc(Nc3ccccc3)n2)o1	6.47
COc1ccc(C2CC(=O)C3=C(C2)NC(C)=C(C(=O)OC(C)C)C3c2ccc([N+](=O)[O-])cc2)cc1OC (stereo not given)	4.3
CCN(CC)S(=O)(=O)c1ccc(-c2csc(Nc3ccc(C)c(C)c3)n2)cc1	4.71

Structure (SMILES)	IFI [%]
NC12CC3CC(C1)CC(SSC14CC5CC(CC(N)(C5)C1)C4)(C3)C2	8.2
Fc1cccc2sc(Nc3nc(-c4ccccn4)cs3)nc12	16.7
CCOc1ccc(NC(=O)C(C)CSc2nc3ccc(NC(=O)CC)cc3s2)cc1 (stereo not given)	1.18
O=C(/C=C/c1ccccc1)NNC(=O)c1cccnc1	2.24
Cc1nc2cc(-c3ccc(Br)cc3)nn2c(O)c1C	0
O=C(NCCCN1CCOCC1)c1c[nH]c2ccc(S(=O)(=O)N3CCc4ccccc43)cc2c1=O	0
CC(=O)N(C1=C(N2CCCC2)C(=O)c2ccccc2C1=O)c1ccc(F)c(F)c1	0
O=C1OC(c2ccccc2)=NC1=C(Cl)Cl	0
COc1cc(O)c2c(=O)cc(CCOC(=O)Nc3ccccc3)[nH]c2c1	1.22
Cc1cc(C)cc(NC2=C(c3ccccc3)C(=O)c3ccccc32)c1	0
COc1ccc(CN2CC(=O)N(c3ccc(Cl)cc3)C2=S)cc1OC	0
CN(C)c1ccc(N2C(N)=NC(N)=NC2(C)C)cc1	0
Oc1ccc(Br)cc1CN1CCN(c2ccccn2)CC1	0
Fc1ccc2[nH]c3c(N4CCN(C(c5ccccc5)c5ccccc5)CC4)ncnc3c2c1	14
COc1ccc(-c2noc(-c3cccc(I)c3)n2)cc1OC	0
CCCCCc1ccc(-c2ccc(/C(C=[N+](C)C)=C\N(C)C)cc2)cc1	14.3
CCCCC(=O)NC(c1cccc([N+](=O)[O-])c1)c1ccc2cccnc2c1O (stereo not given)	8.33
CC[n+]1c(/C=C/C=C2\N(C)c3ccccc3C2(C)C)n(-c2ccccc2)c2ccc(Cl)cc21	21.4
COc1ccc(C2SCCN2S(=O)(=O)c2cccc([N+](=O)[O-])c2)cc1OC (stereo not given)	0
COc1ccc(OC)c(C2CC(=O)C3=C(C2)NC(=O)CC3c2ccc(OC)c(OC)c2)c1 (stereo not given)	0
Cc1nc(-c2nc3c(s2)CN(C(=O)COc2ccc(Cl)cc2)CC3)cs1	4.17
O=C(CN1CCCC1)Nc1c2c(nc3c1CCC3)CCC2	0
Cc1onc(-c2ccccc2)c1C(=O)N1CCC(CNc2c(-c3ccoc3)nc3ccccn23)CC1	4.17
COc1cccc(NC(=O)C2C3C=CC4(O3)C2C(=O)N(Cc2ccc3c(c2)OCO3)C4C(=O)NC2CCCCC2C)c1 (stereo not given)	0

Structure (SMILES)	IFI [%]
Cc1nn(CC(O)Cn2c3ccc(Br)cc3c3cc(Br)ccc32)c(C)c1Br (stereo not given)	3.49
COc1ccc(C(OCC(=O)N2CCN(Cc3ccccc3)CC2)c2ccccc2)cn1 (stereo not given)	0.971
CC1CC2=C(CC1CNCCCN(C)C)C(C)(C)CCC2 (stereo not given)	0
CCCN(CCC)CC(O)COc1ccccc1C(=O)Nc1ccccc1 (stereo not given)	1.51
CC1CCCC(NC(=O)C2N(CCN3CCCCC3C)C(=O)C3C(C(=O)Nc4cccc(Cl)c4)C4C=CC32O4)C1C (stereo not given)	0
CCOC(=O)C[n+]1cc(CC)sc1N	0
c1cncc(-c2cc(NCCCN3CCOCC3)nc(-c3ccncc3)n2)c1	0
COC1C(OC2OC(C)C(O)C(C)(O)C2OC)c2c(cc3c(c2O)C(=O)c2c(ccc4c2OC2OC4(C)C(OC4CC(C)([N+](=O)[O-])C(OC5OC(C)C(O)C(C)(O)C5OC)C(C)O4)C(N(C)C)C2O)C3=O)CC1(C)O (stereo not given)	10.5
COCCOC(=O)NCc1ccc(Nc2c(C(C)(C)C)nc3cnccn23)cc1	1.37
Oc1c2c(nc3cc(-c4ccc(-c5ccccc5)cc4)nn13)CCCC2	0
O=C(NCCc1ccccc1)C1CCC(Cn2c(=S)[nH]c3ccccc3c2=O)CC1 (stereo not given)	0
COc1ccc(CN(Cc2cc3cccc(C)c3nc2N2CCCC(O)C2)C(=O)c2ccc(OC)c(OC)c2)cc1 (stereo not given)	2.94
CN(C)c1cc[n+](CC(=O)c2ccc(Br)cc2)cc1	0
COc1ccc(S(=O)(=O)N2CCN(C(=S)NC3CCCCC3)CC2)cc1	0
CN(CCCNc1ccnc2cc(Cl)ccc12)C(=O)c1ccc(Cl)c(Cl)c1	1.87
CCOc1ccc(C(=O)C[N+]2=C(C)c3ccc(C)n3CC2)cc1	0
COc1ccc(CN(Cc2cc3cccc(C)c3[nH]c2=O)C(=S)NC2CCCCC2)cc1	3.6
CCOC(=O)C1=C(C)N=c2sc(=Cc3c4ccccc4cc4ccccc34)c(=O)n2C1c1cc(OC)ccc1OC (stereo not given)	0
O=C1N(Cc2cc3ccccc3s2)CC2CN(Cc3ccc(F)c(F)c3)CCN12 (stereo not given)	1.39
CCc1nc2ccc(NC(=O)c3ccncc3)cc2c(=O)n1Cc1cccc(OC)c1	5.13
COC(=O)C1=C(C)NC2=C(C(=O)CC(c3ccc(OC)c(OC)c3)C2)C1c1ccc(Br)cc1 (stereo not given)	4.88
COc1cccc(NC(=O)c2sc3ncn(CC(=O)N4CCN(c5ccccn5)CC4)c(=O)c3c2C)c1	0
Cc1n[nH]c2c1C(c1ccc([N+](=O)[O-])cc1)N(c1ccc(Br)cc1)C2=O (stereo not given)	0
CN(Cc1ccsc1)C(=O)CCc1nnc(CCCc2ccccc2)o1	0

Structure (SMILES)	IFI [%]
CCCCCN(CC(=O)Nc1cc(C(C)(C)C)nn1-c1ccc(Cl)c(Cl)c1)C(=O)c1cccc(OC)c1	1.89
CCCCCc1ccc(C(=O)N(C)CCCNc2ccnc3cc(Cl)ccc23)cc1	7.48
CC1=C(C(=O)OC(C)C)C(c2ccc([N+](=O)[O-])cc2)C2=C(CC(C)(C)CC2=O)N1 (stereo not given)	0
Clc1ccc2c(N3CCC(n4cccc4)CC3)ccnc2c1	1.68
CC(C)OC(=O)c1cccnc1SCC(=O)Nc1ccc(C(F)(F)F)cc1Cl	0
C[n+]1ccc(/C=C/c2ccc(Br)cc2)cc1	5.46
CCC1(C)CC(CCNCc2ccccc2O)(c2ccc(OC)cc2)CCO1 (stereo not given)	1.89
Cc1ccc(Nc2nc(NCCO)c3ccccc3n2)cc1C	0
Clc1ccc(-c2c[n+](CCc3ccccc3)c3n2CCC3)cc1	5
COc1cccc(-c2ccc(O)c(CN3CCCCC3)c2)n1	1.72
COc1ccccc1NC(=S)N1CCN(c2ccc([N+](=O)[O-])cc2)CC1	0
COc1ccc(-n2c(COc3cccc4ccccc34)nnc2SC)cc1	2.83
C/N=C(\N)Nc1nc(C)c2cc(OC)ccc2n1	3.62
CCOC(=O)C1=CN(c2cc(C)ccc2C)C=C(C(=O)OCC)C1c1ccccc1OC	4.94
COc1ccccc1C(c1c(C)n[nH]c1O)c1c(C)n[nH]c1O	0
N[C@@H](COP(=O)(O)O)C(=O)O	0
COc1ccc(C2C(C(N)=O)=C(C)Nc3ncnn32)cc1OC (stereo not given)	0
COc1ccc(Nc2nc3nonc3nc2NN=Cc2cc(Cl)ccc2O)cc1	7.14
COc1ccc(Nc2nc(NCc3ccco3)c3ccccc3n2)cc1	12
Cc1nc2c(C#N)c(C)nn2c(C)c1Cc1cccc(F)c1	0
Cc1cc(Cl)c(S(=O)(=O)N2CCCC2)cc1OCC(=O)NC1CCCCC1	0
COc1cc(C=NNc2nc3ccccc3[nH]2)cc(OC)c1OC	0
COc1ccc(NC(=O)CCn2c(=S)oc3ccccc32)c([N+](=O)[O-])c1	0
